Whole data set: some 110,000 compounds, median “z-score” near -0.1, cut for the highest 2% near 2. Some of the results follow. The source made the active and inactive calls.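 The calls were made as follows: active = z-score in the third read window above 3 or below -3; inactive = the rest.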

This assay deals with Metabotropic glutamate receptor 8 (Rattus norvegicus) (UniProt P70579). Put plainly: mGluR8 Gi/Go-coupled signaling modulation – cell-based, rat, thallium flux, HTS, primary screen (AID 488969). To be noted: HEK293 rat mGluR8, GIRK (G protein-gated inwardly rectifying potassium channel) thallium flux, FluoZin2; at 10 µM; stronger effect = higher value; submaximal glutamate (EC20) added with thallium.
UniProt P70579, sequence (P70579 whole entry, looked up): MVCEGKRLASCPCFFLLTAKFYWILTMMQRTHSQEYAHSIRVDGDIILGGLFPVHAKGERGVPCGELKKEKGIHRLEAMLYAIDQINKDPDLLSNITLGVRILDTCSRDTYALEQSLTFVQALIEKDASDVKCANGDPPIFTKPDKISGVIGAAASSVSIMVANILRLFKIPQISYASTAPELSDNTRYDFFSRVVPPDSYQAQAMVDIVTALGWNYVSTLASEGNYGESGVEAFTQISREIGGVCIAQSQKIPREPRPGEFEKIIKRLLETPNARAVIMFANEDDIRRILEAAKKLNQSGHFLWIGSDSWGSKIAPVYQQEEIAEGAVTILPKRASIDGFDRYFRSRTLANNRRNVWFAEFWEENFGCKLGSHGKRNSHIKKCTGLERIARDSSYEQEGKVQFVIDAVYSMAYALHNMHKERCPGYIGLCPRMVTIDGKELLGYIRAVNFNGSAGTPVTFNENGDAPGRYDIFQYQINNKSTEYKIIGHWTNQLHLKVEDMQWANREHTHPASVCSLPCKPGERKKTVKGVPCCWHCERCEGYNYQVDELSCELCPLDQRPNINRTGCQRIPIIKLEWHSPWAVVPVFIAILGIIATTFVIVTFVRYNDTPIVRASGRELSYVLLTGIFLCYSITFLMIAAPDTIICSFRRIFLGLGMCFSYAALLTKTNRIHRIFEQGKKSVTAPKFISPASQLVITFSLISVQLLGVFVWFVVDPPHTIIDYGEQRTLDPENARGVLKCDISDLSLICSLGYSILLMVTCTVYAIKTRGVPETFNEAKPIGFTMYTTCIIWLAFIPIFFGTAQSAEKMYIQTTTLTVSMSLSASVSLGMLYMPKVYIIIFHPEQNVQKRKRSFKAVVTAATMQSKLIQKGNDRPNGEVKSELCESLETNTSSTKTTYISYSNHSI
Turning to `O=C(c1ccc(Br)cc1)N1CCCC1`, the z-score was 1.
`COc1ccc(CN2C(=O)c3ccccc3C2=O)cc1C(=O)OCC(=O)NC1CCCCC1` gave a z-score of -0.536.
`COc1ccc(NC(=O)c2sccc2C)c([N+](=O)[O-])c1` came in with a z-score of -0.01.
The molecule `Nc1nonc1C(=O)NCCNCc1cc(Br)ccc1OCc1ccc(F)cc1` displayed a z-score of 0.587.
Under `COc1ccc(C2c3ccc4ccccc4c3Oc3ncn(Cc4ccco4)c(=N)c32)cc1OC` (stereo not drawn) stands 0.46; under `O=C1NC(=Nc2ccc(Cl)cc2)/C(=C/c2ccco2)S1`, -0.268; under `CCc1nnc(SCCSc2nnc(CC)n2N)n1N`, 0.577.
As to `CN(C)S(=O)(=O)c1ccc(C(=O)Nc2nnc(-c3ccc4c(c3)CCCC4)o2)cc1`, the z-score is active: 5.8.
Under `O=C(CSCc1cccc(Br)c1)N=Nc1c(O)[nH]c2ccccc12` stands -0.113.
Under `O=c1cc(NCCO)c2ccccc2o1` stands 0.452; under `O=C1N=C(N2CCOCC2)CS1`, 0.577.
For the molecule `Cc1cc(CC(C)C)n(-c2nc3ccccc3c(=O)n2OCC(N)=O)n1`, the z-score is active: 3.83.
`Cc1ccc(N2CC(C(=O)NCc3cccs3)CC2=O)cc1C` (stereo not drawn) had a z-score of 0.365.
Under `CN(C)CCNC(=O)Cn1nc(C(F)F)cc1C1CC1` stands 0.2; under `CCCn1c(=O)[nH]c(=O)c2c1nc(-c1ccc(OC(F)(F)C(F)C(F)(F)F)cc1)n2CCOC` (stereo not drawn), -0.639; under `CCCC1=NN(C(=O)Cc2ccc(OC)cc2)C(O)(C(F)(F)F)C1` (stereo not drawn), -0.299.
For `C=C(C)Cn1c(NCCOC)nc2c1c(=O)[nH]c(=O)n2C`, the z-score is -0.0876.
Under `O=S(=O)(c1ccc2ccccc2c1)N1CCN(C2Cc3ccccc3C2)CC1` stands -0.346; under `Cc1cc(=O)[nH]c(SCC(=O)Nc2ccc(Br)cc2)c1C#N`, -0.679; under `Cc1c(C(=O)NCCc2ccccc2)oc2ccc(S(=O)(=O)N3CCC4(CC3)OCCO4)cc12`, 0.735.
The same measure for `O=C(O)Cc1ccc(C(=O)c2ccccc2)s1`: -0.252; for `CC(Nc1ccc(Cl)cc1)c1cc(Cl)ccc1O` (stereo not drawn): -0.271; for `O=C(NNC(=O)c1cccc2ccccc12)c1ccc(-c2ccccc2)cc1`: -0.146.
With `CCCCn1c(SCC(=O)Nc2nc(C)cs2)nnc1-c1cccnc1`, the z-score is -1.06.
The same measure for `CCCc1cc(-n2cnc3ccccc32)n2c(nc3ccccc32)c1C#N`: -0.538; for `O=S(=O)(Nc1c(S(=O)(=O)c2ccccc2)c2nc3ccccc3nc2n1C1CCCCC1)c1ccccc1`: -1.31.
In turn, `COc1ccc(-c2ccc(=O)n(CC(=O)Nc3ccc(C(=O)NC4CC4)cc3)n2)cc1OC` yielded a z-score of 0.564.
The same measure for `CCCC(=O)NNC(=O)Nc1ccccc1`: -0.149; for `CN(C)c1oc(-c2ccco2)nc1C#N`: 0.498; for `Cc1ccc2cc(CCNC(=O)C(C)C)c(=O)[nH]c2c1C`: 0.369.
The same measure for `CCCCCn1c(SCCc2ccccc2)nc2c1c(=O)[nH]c(=O)n2C`: 0.478.
Under `Cc1cccc(NC(=S)NN2CCN(C)CC2)c1C` stands -0.00323.
In turn, `CC1CCN(C(=S)c2ccc(-c3ccc(Cl)cc3Cl)o2)CC1` yielded a z-score of -0.239.
`CCc1nc(N)c(C#N)c(-c2cccnc2)c1C` yielded a z-score of -0.116.
Under `COc1cccc(Nc2nnc(SCc3cc([N+](=O)[O-])cc4c3OCOC4)s2)c1` stands 1.05.
The molecule `COC(=O)CN(C#N)c1nc(NC(C)C)nc(OC)n1` displayed a z-score of -0.142.
The same measure for `CC(=O)c1ccc(NC2CC(O)C(O)CO2)cc1` (stereo not drawn): 2.32; for `COC(=O)c1cc2sc(Cl)cc2n1CC(=O)Nc1ccc(OC)c(OC)c1OC`: -0.254.
Regarding `O=C(CSc1nc(-c2ccccc2Cl)ns1)Nc1ccc2c(c1)OCO2`, the z-score was -0.0246.
Under `CO/N=C(/CNC(=O)c1ccc(F)cc1)c1ccc(Cl)cc1` stands -0.494; under `FC(F)(F)c1cccc(N/N=C/c2ccccc2)c1`, -0.112.
`Cc1cc(C(=O)N2CCc3ccccc32)c2ccccc2n1`: the z-score came to 0.252.
The same measure for `COc1ccc(OCCn2cc(/C(N)=N/O)c3ccccc32)cc1`: -0.174.
On to `C/C(=N\NC(=O)c1ccc(CN2CCOCC2)cc1)c1cccc([N+](=O)[O-])c1`, for which the z-score is -0.388.
Under `CC(C)(C)C(=O)Oc1cc(N)n(S(=O)(=O)c2ccc(F)cc2)n1` stands -1.6.
Under `CCOC(=O)C1=C(C)NC(=O)NC1c1ccccc1OCc1c(F)cccc1Cl` (stereo not drawn) stands -0.701; under `Oc1ccc(NC(=S)Nc2ccccc2)cc1`, -0.14; under `CC(=O)c1cc(NC(=O)c2ccc(Cl)cc2)c(=O)oc1/C=C/N(C)C`, -0.164.
Under `c1ccc(CNc2ncnc3c2oc2ccccc23)nc1` stands 0.503; under `CCc1nc(SCc2cc(Cl)ccc2OC)n[nH]1`, 0.561.
Turning to `CCOCCSc1nc2c(c(-c3cccs3)c1C#N)CC/C2=C/c1cccs1`, the z-score was -0.182.
On to `COc1ccc(C(=O)C/C(=C\C(=O)c2ccc(C)cc2)c2ccccc2)cc1`, for which the z-score is -0.243.
`COc1ccc(NC(=O)c2ccc(CNc3c(NC4CCCCC4)c(=O)c3=O)cc2)c(OC)c1` yielded a z-score of 1.05.
The same measure for `Cc1ccc(N2CC(C(=O)NCCCn3ccnc3)CC2=O)cc1` (stereo not drawn): -0.228; for `CCOC(=O)C1CSC(CC(=O)Nc2ccc(Cl)cc2)C(=O)N1` (stereo not drawn): -0.195.
Take `COc1ccc(N(CC(=O)NN=C2CCCC2)S(=O)(=O)c2ccccc2)cc1Cl`: the z-score is -0.806.
The molecule `CCOC(=O)c1ccc(NC(=O)CN2C(=O)CSCC2=O)cc1` displayed a z-score of -0.0441.
Turning to `O=C1CC(c2cc(Br)ccc2F)c2cc3c(cc2N1)CCC3` (stereo not drawn), the z-score is -0.108.
In turn, `Cn1c2c(c(=O)n(C)c1=O)C(NS(=O)(=O)c1ccc(Cl)cc1)(C(F)(F)F)C(=O)N2` (stereo not drawn) had a z-score of -0.23.
The same measure for `O=C(Nc1cccc(F)c1)NC1(C(=O)N2CCN3CCCC3C2)CCCCC1` (stereo not drawn): 0.517; for `COc1ccccc1OCCSc1nc(N)cc(N)n1`: 0.247; for `Cc1cccc(C(=O)N[C@H](C(=O)Nc2nc(C)cs2)C(C)C)c1`: -0.204.
Under `CCOC(=O)CNC(=O)C1c2ccccc2C(=O)N(c2ccc(OC)cc2)C1c1ccc(OC)cc1` (stereo not drawn) stands 0.203.
Under `COc1ccc(Nc2nc(N)nc(CSc3nncn3C)n2)cc1` stands 0.0648; under `Cc1ccc(-n2c(C)cc3c2CC(C)(C)CC3=O)cc1C`, 0.768; under `COCCCNCCOc1cc(C(C)C)ccc1C`, 1.96.
Molecule `COC(=O)CCn1nnc(-c2ccc(C)cc2)n1` yielded a z-score of -0.429.
As to `COC(=O)CNc1nc(C2CC2)nc2c1nnn2Cc1ccccc1Cl`, the z-score is -0.233.
`COc1ccc2c(c1)Cc1sc(NC(=O)c3cccs3)nc1-2`: the z-score is 0.245.
Under `Cc1cccc(-n2c(-c3ccncc3)n[nH]c2=S)c1` stands -0.125; under `Clc1ccc(Sc2cc(Cl)c(-c3ccccc3)nn2)cc1`, -1.2; under `CCCC(=O)C1C(=O)CC(CC(C)SCC)CC1=O` (stereo not drawn), 0.82.
The same measure for `Cc1cc(Br)cc(C)c1NC(=S)NC(=O)CC(C)C`: -0.0455.

The values are drawn from PubChem BioAssay AID488969 (Vanderbilt High Throughput Screening Facility, 2010).
